# Results as given in the supplement of paper PMC4604168 (melanoma cell lines).
# Some of the results follow. Single values are uncertain, as repeats are few or missing.
# How the values were obtained:
# Assay in all cases: cell count relative to DMSO control; melanoma cells; higher = more viable cells
# Conditions in all cases: library dose: low library concentration; 72 h
# [1] = test system: MZ2-MEL
# [2] = test system: MeWo
# [3] = test system: RPMI7951
# [4] = test system: RVH-421
# [5] = test system: SkMel28
# [6] = test system: SkMel2
# [7] = test system: SkMel30
# [8] = test system: UACC62
# [9] = test system: SkMel5
# [10] = test system: UACC257
# 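Also: cell number obtained by counting DAPI-stained nuclei in high-throughput microscope images with image analysis software, screen run in 1,536-well plates.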
SMILES,cell count [1] [%],cell count [2] [%],cell count [3] [%],cell count [4] [%],cell count [5] [%],cell count [6] [%],cell count [7] [%],cell count [8] [%],cell count [9] [%],cell count [10] [%]
"Clc1ccc(Nc2nnc(Cc3ccncc3)c3ccccc23)cc1 [vatalanib] + C[As](C)SC[C@H](NC(=O)CC[C@H](N)C(=O)O)C(=O)NCC(=O)O [Darinaparsin] (first compound 2 µM, partner dose 0.4 µM)",91.3,74.4,107,109,85.1,95.1,124,86.2,,
"COCC[n+]1c2c(n(Cc3cnccn3)c1C)C(=O)c1ccccc1C2=O + C/C(O)=C(\C#N)C(=O)Nc1cc(Br)ccc1Br [LFM-A13] (first compound 0.0004 µM, partner dose 2 µM)",68.8,84.6,103,95.5,79.8,,98.7,79.6,86.5,106
"Nc1ccn([C@@H]2O[C@H](CO)[C@@H](O)C2(F)F)c(=O)n1 [gemcitabine] + C/C(O)=C(\C#N)C(=O)Nc1cc(Br)ccc1Br [LFM-A13] (first compound 0.0004 µM, partner dose 2 µM)",97.6,95.7,82.9,102,95,106,95,88.4,95.3,119
"CC(C)C[C@H](NC(=O)[C@H](Cc1ccccc1)NC(=O)c1cnccn1)B(O)O [Bortezomib] + C/C(O)=C(\C#N)C(=O)Nc1cc(Br)ccc1Br [LFM-A13] (first compound 0.001 µM, partner dose 2 µM)",68.9,82.7,88.8,72.5,80,85.2,85.8,74.7,102,70.5
"Oc1cc(-c2nc(-c3ccccc3)[nH]c2-c2ccncc2)ccc1Cl + C/C(O)=C(\C#N)C(=O)Nc1cc(Br)ccc1Br [LFM-A13] (first compound 0.2 µM, partner dose 2 µM)",85.8,98.8,97.1,79.5,70.6,,113,57.9,96.1,98.4
"Cc1cc(Nc2cc(N3CCN(C)CC3)nc(Sc3ccc(NC(=O)C4CC4)cc3)n2)n[nH]1 [Tozasertib] + C/C(O)=C(\C#N)C(=O)Nc1cc(Br)ccc1Br [LFM-A13] (first compound 0.006 µM, partner dose 2 µM)",102,78.7,80.7,110,75.7,98.4,78.4,79.1,92.6,79.6
"C[C@@H]1CCN(C(=O)CC#N)C[C@@H]1N(C)c1ncnc2[nH]ccc12 + C/C(O)=C(\C#N)C(=O)Nc1cc(Br)ccc1Br [LFM-A13] (first compound 1 µM, partner dose 2 µM)",102,103,83.6,84.1,88,,97.5,90.8,90.8,92.4
"Cc1cc(Nc2cc(N3CCN(C)CC3)nc(Sc3ccc(NC(=O)C4CC4)cc3)n2)n[nH]1 [Tozasertib] + N.N.[Cl][Pt][Cl] [cisplatin] (first compound 0.006 µM, partner dose 1.6 µM)",0.893,84.8,82.9,89.3,92.8,92,99.7,106,,
"Cc1cc(Nc2cc(N3CCN(C)CC3)nc(Sc3ccc(NC(=O)C4CC4)cc3)n2)n[nH]1 [Tozasertib] + Cn1cc(C2=C(c3cn(C4CCN(Cc5ccccn5)CC4)c4ccccc34)C(=O)NC2=O)c2ccccc21 [Enzastaurin] (first compound 0.006 µM, partner dose 0.8 µM)",94.7,96.4,95.7,127,92.9,98.4,109,104,,
"Clc1ccc(Nc2nnc(Cc3ccncc3)c3ccccc23)cc1 [vatalanib] + O=C(Oc1ccc([N+](=O)[O-])cc1)N1CCC(C(O)(c2ccc3c(c2)OCO3)c2ccc3c(c2)OCO3)CC1 [JZL184] (first compound 2 µM, partner dose 1 µM)",85.9,84.4,98.6,88.4,85.5,106,115,87.8,71.4,80
"CN1CCN(c2ccc3nc(-c4c(N)c5c(F)cccc5[nH]c4=O)[nH]c3c2)CC1 [Dovitinib] + C/C(O)=C(\C#N)C(=O)Nc1cc(Br)ccc1Br [LFM-A13] (first compound 0.1 µM, partner dose 2 µM)",83.9,84.9,103,107,74.7,105,97.6,78.9,104,97.6
"CC(C)C[C@H](NC(=O)[C@H](Cc1ccccc1)NC(=O)c1cnccn1)B(O)O [Bortezomib] + N.N.[Cl][Pt][Cl] [cisplatin] (first compound 0.001 µM, partner dose 1.6 µM)",68.9,89,70.7,73,105,84.4,108,70.2,,
"CC(C)C[C@H](NC(=O)[C@H](Cc1ccccc1)NC(=O)c1cnccn1)B(O)O [Bortezomib] + O=C(Oc1ccc([N+](=O)[O-])cc1)N1CCC(C(O)(c2ccc3c(c2)OCO3)c2ccc3c(c2)OCO3)CC1 [JZL184] (first compound 0.001 µM, partner dose 1 µM)",83,69.3,66.5,52.8,79.5,97.8,50.7,60.3,80.5,40.4
"O=C(O)c1ccc2c(c1)nc(Nc1cccc(Cl)c1)c1ccncc12 + O=C(Oc1ccc([N+](=O)[O-])cc1)N1CCC(C(O)(c2ccc3c(c2)OCO3)c2ccc3c(c2)OCO3)CC1 [JZL184] (first compound 0.4 µM, partner dose 1 µM)",85.8,98.5,90.5,124,102,90.2,94.5,89,103,115
"COc1cc2ncnc(Nc3ccc(Oc4ccccc4)cc3)c2cc1OC + O=C(Oc1ccc([N+](=O)[O-])cc1)N1CCC(C(O)(c2ccc3c(c2)OCO3)c2ccc3c(c2)OCO3)CC1 [JZL184] (first compound 2 µM, partner dose 1 µM)",90.3,92.1,137,132,80,,48,94.3,94.6,101
"Nc1ccn([C@@H]2O[C@H](CO)[C@@H](O)C2(F)F)c(=O)n1 [gemcitabine] + O=C(Oc1ccc([N+](=O)[O-])cc1)N1CCC(C(O)(c2ccc3c(c2)OCO3)c2ccc3c(c2)OCO3)CC1 [JZL184] (first compound 0.0004 µM, partner dose 1 µM)",96,94.5,94.6,95.5,85.3,101,92.8,75.3,82.8,93.4
"c1cc(-c2cnn3cc(-c4ccc(OCCN5CCCCC5)cc4)cnc23)ccn1 [Dorsomorphin] + O=C(Oc1ccc([N+](=O)[O-])cc1)N1CCC(C(O)(c2ccc3c(c2)OCO3)c2ccc3c(c2)OCO3)CC1 [JZL184] (first compound 0.4 µM, partner dose 1 µM)",97.8,96.3,95.1,96.3,96.5,,104,98.1,81.5,116
"O=C(CCCCCCC(=O)Nc1ccccc1)NO [vorinostat] + Cc1cc(SCc2sc(-c3ccc(C(F)(F)F)c(F)c3)nc2C)ccc1OCC(=O)O [GW0742] (first compound 0.08 µM, partner dose 2 µM)",102,108,84.4,616,72.8,,107,93,89.7,118
"COCC[n+]1c2c(n(Cc3cnccn3)c1C)C(=O)c1ccccc1C2=O + Cc1cc(SCc2sc(-c3ccc(C(F)(F)F)c(F)c3)nc2C)ccc1OCC(=O)O [GW0742] (first compound 0.0004 µM, partner dose 2 µM)",54.2,76,95.4,109,99.4,,100,91,72.9,107
"CC(C)C[C@H](NC(=O)[C@H](Cc1ccccc1)NC(=O)c1cnccn1)B(O)O [Bortezomib] + C[As](C)SC[C@H](NC(=O)CC[C@H](N)C(=O)O)C(=O)NCC(=O)O [Darinaparsin] (first compound 0.001 µM, partner dose 0.4 µM)",58.1,75.7,78.5,48.3,113,104,72.2,77,,
"Oc1cc(-c2nc(-c3ccccc3)[nH]c2-c2ccncc2)ccc1Cl + O=C(Oc1ccc([N+](=O)[O-])cc1)N1CCC(C(O)(c2ccc3c(c2)OCO3)c2ccc3c(c2)OCO3)CC1 [JZL184] (first compound 0.2 µM, partner dose 1 µM)",82.1,90.4,79.1,70.4,69.7,,86.2,57.9,96.6,89.9
"COc1ccc(COc2ccc(Cc3cnc(N)nc3N)cc2OC)cc1 + Cc1cc(SCc2sc(-c3ccc(C(F)(F)F)c(F)c3)nc2C)ccc1OCC(=O)O [GW0742] (first compound 1 µM, partner dose 2 µM)",93,98,85.7,122,102,,105,95.6,91.2,86.9
